PubChem BioAssay AID1347073 (National Center for Advancing Translational Sciences (NCATS), 2019)
Among all 45,000 compounds or so, about 200 (0.44%) were called active. About 7% were inconclusive and are not listed. Calls come from the whole dose curve; as a rule, active = well fitted activation curve with a large enough effect; inconclusive = small, poorly fitted or top-dose-only effect; inactive = no such curve, though single readings can be large or run the other way. The list shows a part of the results.

test: qHTS of TDP-43 Inhibitors: NCGC Sytravon Library Screen; details: yeast TDP-43 toxicity rescue, BacTiter-Glo growth, 24 h; series mostly up to 46.1 µM; growth rescue (activation): at the top concentration; note: nearly all actives have a fitted effect of over 55% in size; for growth rescue (activation): 0% is about no effect
In short: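 TDP-43-expressing yeast, pregrown in raffinose, seeded at OD600 0.02 in galactose medium with compound for 24 hr at 30 deg C. Growth read by BacTiter-Glo luminescence, so rescue of toxicity appears as activation.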
Potency is the fitted concentration of half-maximal effect.

| SMILES | Potency | growth rescue (activation) |
| --- | --- | --- |
| COc1ccc(Nc2nc3cc(-c4ccccc4C)sc3c(=O)n2C)cc1OC | active: 20 µM | – |
| Cc1c(CCC(=O)O)c(=O)oc2c(C)c(OCc3ccccc3Cl)ccc12 | – | inactive: 2.21% |
| COc1ccc(C(=O)CSc2[nH]c(=O)cc(C(F)(F)F)c2C#N)cc1 | – | inactive: -9.69% |
| Cc1cc(C)nc(NC(=O)c2cc(Br)ccc2Cl)n1 | – | inactive: 3.69% |
| COc1cc(CCC(=O)N2CCN(c3ccccc3Cl)CC2)cc(OC)c1OC | – | inactive: 21.1% |
| COC(=O)c1cc(Cl)cc(Cl)c1OS(=O)(=O)N(C)C | – | inactive: 25% |
| CC(C)c1csc(CN2CCC(N3CCC(C(=O)N4CCOCC4)CC3)CC2)n1 | – | inactive: -2.35% |
| Cc1ccc(C(=O)Nc2ccc(N3CCN(C)CC3)cc2)cc1 | – | inactive: 2.23% |
| Cc1cc(C)c(NC(=O)c2cc(C(=O)O)ccc2C(=O)O)c([N+](=O)[O-])c1 | – | inactive: -2.66% |
| CCc1ccc(N(C(=O)c2snc(C(N)=O)c2N)C(C(=O)NCC2CCCO2)c2ccco2)cc1 (stereo not given) | – | inactive: 2.32% |
| Cc1cc(/C=C(\C#N)C(=O)NCc2ccco2)c(C)n1-c1cccnc1 | – | inactive: 12% |
| CSc1ccc(C#N)cc1NC(=O)c1ccccc1 | – | inactive: 10.5% |
| Cc1ccccc1C(=O)NC1CCN(CC(=O)NC2CCCCC2)CC1 | – | inactive: -20.9% |
| COC(=O)c1cc(NC(=O)CC2Oc3ccccc3NC2=O)cc(C(=O)OC)c1 (stereo not given) | – | inactive: 6.53% |
| CCOC(=O)COc1cc([N+](=O)[O-])cc2cccnc12 | – | inactive: 9.09% |
| Cn1ccnc1C(=O)c1ccc(Cl)c(S(=O)(=O)N2CCOCC2)c1 | – | inactive: -17.7% |
| CCN(CC)C(=O)Cn1nc(-c2ccc(Cl)cc2)c2ccccc2c1=O | – | inactive: -5.48% |
| CC(C)[C@H](NC(=O)NCCc1ccc(F)cc1)C(=O)O | – | inactive: 7.27% |
| O=[N+]([O-])c1ccc(C=Nc2cccc3ccccc23)s1 | – | inactive: -94% |
| CCOC(=O)C1(CCc2ccccc2)CCN(C(=O)CCc2cnccn2)CC1 | – | inactive: 19.2% |
| O=C1N=C(N2CCCC2)CN1c1ccccc1 | – | inactive: -5.45% |
| CC(=O)Nc1ccc(SCC(=O)OCC(=O)NC(=O)NC2CCCC2)cc1 | – | inactive: 2.94% |
| O=C(c1ccc(-c2cc3ccccc3oc2=O)cc1)N1CCN(c2ccc(Cl)cc2[N+](=O)[O-])CC1 | – | inactive: 16% |
| Cc1ccc(-c2nn3c(-c4ccc(C)cc4)nnc3c3ccccc23)cc1 | – | inactive: 1.84% |
| CN(C)CCCNc1ccc(S(N)(=O)=O)cc1[N+](=O)[O-] | – | inactive: 4.26% |
| COc1ccc(C(=O)N/C(=C\c2ccc3c(c2)OCO3)C(=O)N2CCOCC2)cc1 | – | inactive: 2.19% |
| CC(C)CNC(=O)c1cccc(NC(=O)COc2ccc([N+](=O)[O-])cc2)c1 | – | inactive: 3.52% |

| SMILES | Potency | growth rescue (activation) |
| --- | --- | --- |
| CN(c1ccccc1)S(=O)(=O)c1cccc(C(=O)OCC(=O)Nc2ccc(C(N)=O)cc2)c1 | – | inactive: -4.06% |
| O=C(Nc1ccc(NC(=O)c2cccs2)cc1)c1ccc2c(c1)OCO2 | – | inactive: 25.2% |
| Cc1ccc(C(O)c2ncc(-c3ccccc3F)[nH]2)cc1F (stereo not given) | – | inactive: 4.18% |
| COc1ccc(NC(=O)c2ccccc2)cc1NS(=O)(=O)c1ccc(F)cc1 | – | inactive: 18.8% |
| COc1ccccc1N(CC(=O)NC1CCCCC1C)S(=O)(=O)c1cccs1 (stereo not given) | – | inactive: 4.08% |
| O=C(CSc1ncccn1)Nc1cccc2ccccc12 | – | inactive: 24.4% |
| CCOc1cc(/C=N/NC(=O)c2ccc(-c3csc(Nc4ccc(C)cc4)n3)cc2)ccc1OCC(=O)O | – | inactive: 4.08% |
| Cc1c(C)[n+](=O)c(-c2ccc(Br)cc2)c(C)n1[O-] | – | inactive: -12.3% |
| O=C(Cn1cnc2ccccc21)Nc1ccc(SC(F)F)cc1 | – | inactive: 8.51% |
| COc1ccccc1Nc1c2c(nc3ccccc13)CCC2 | – | inactive: -22% |
| CCCN1C(=O)c2[nH]nc(-c3ccc(F)cc3)c2C1c1ccccn1 (stereo not given) | – | inactive: 9.45% |
| O=C(O)CC(Cc1ccccc1)C(=O)NCC12CC3CC(CC(C3)C1)C2 (stereo not given) | – | inactive: -12.3% |
| COc1ccccc1NC(=O)C1=C(C)NC(=O)NC1c1cccc(OC)c1OC (stereo not given) | – | inactive: -11.2% |
| COC(=O)c1cc(C(=O)NCc2ccccc2)c(=O)[nH]c1C | – | inactive: 9.72% |
| Cc1nc2sc(C(=O)Nc3ccccc3)c(N)c2c(C)c1[N+](=O)[O-] | – | inactive: -13.1% |
| CC(=O)Nc1ccc(NC(=O)C2CCCN(S(=O)(=O)c3ccc(-n4cnnn4)cc3)C2)cc1 (stereo not given) | – | inactive: 9.09% |
| Cc1ccc(C)c(N(CC(=O)NC2CCCCC2)C(=O)c2csnn2)c1 | – | inactive: 0.952% |
| Cc1ccc(NC(=O)c2ccc(Br)cc2)c(C(=O)c2ccccc2)c1 | – | inactive: 18.1% |
| O=C(CCN1C(=O)C2C3CCC(C3)C2C1=O)Nc1cccc(Cl)c1 (stereo not given) | – | inactive: -12.1% |
| C=C(C)c1cccc(C(C)(C)NC(=O)Nc2ccc(OC)nc2)c1 | – | inactive: -14.9% |
| CC1(C)C2CC=C(/C=N/NC(=O)c3ccccc3O)C1C2 (stereo not given) | – | inactive: 10.7% |
| NC(=O)CSc1nc2c(sc(=S)n2-c2ccccc2)c(=O)[nH]1 | – | inactive: 7.67% |
| COc1ccc(NC(=O)CN2C(=O)c3ccccc3S2(=O)=O)cc1S(=O)(=O)N1CCOCC1 | – | inactive: 14.8% |
| Cc1ccc(C(=O)CSc2nc(-c3ccccc3)cc(=O)[nH]2)cc1 | – | inactive: 4.38% |
| COc1ccc(N=C2NN=C(c3ccc4c(c3)OCCO4)CS2)cc1 | – | inactive: 19.6% |
| Cc1ccc(C)c(NC(=S)c2ccc3ccccc3n2)c1 | – | inactive: 22.2% |
| O=C(O)c1cc(NC(=O)c2ccccc2[N+](=O)[O-])ccc1O | – | inactive: -9.18% |

| SMILES | Potency | growth rescue (activation) |
| --- | --- | --- |
| CCCCN(C(=O)COc1ccc(NC(C)=O)cc1)C1CCS(=O)(=O)C1 (stereo not given) | – | inactive: -1.48% |
| O=C(NC(c1ccc(Cl)cc1)c1cnccn1)C1CCN(Cc2ccccc2)CC1 (stereo not given) | – | inactive: 6.26% |
| CCCC(=O)NC(=S)N1CCN(c2ccc([N+](=O)[O-])cc2)CC1 | – | inactive: 11.4% |
| COc1ccc(CNC(=O)CN(Cc2ccc(Cl)cc2)S(C)(=O)=O)cc1 | – | inactive: 10.3% |
| COc1cccc(-c2cnc(C(O)c3cc(F)cc(Cl)c3)[nH]2)c1 (stereo not given) | – | inactive: 12.9% |
| CC(NC(=O)Cn1nc(C(=O)O)c2ccccc2c1=O)C12CC3CC(CC(C3)C1)C2 (stereo not given) | – | inactive: 11.8% |
| CC(=O)c1ccc(N2CCN(C(=O)/C=C/c3cccs3)CC2)cc1 | – | inactive: 17.4% |
| Cc1c(C(=O)Nc2ccccc2)csc1-c1ccccc1 | – | inactive: 8.17% |
| CCC(C)NC(=O)COC(=O)c1ccccc1OCC(=O)Nc1ccc(Br)cc1 (stereo not given) | – | inactive: 5.25% |
| CC(C)CN1CCN(Cc2ccc(CN3CCCCC3)s2)CC1CCO (stereo not given) | – | inactive: 2.42% |
| Cc1ccc(N2C(=O)CC(Cn3nc(C)cc3C)C2=O)cc1 (stereo not given) | – | inactive: 17.5% |
| COc1cccc(N(CC(=O)Nc2cccnc2)S(C)(=O)=O)c1 | – | inactive: 1.99% |
| O=C(Nc1ccccc1)/C(=C\c1ccco1)NC(=O)c1ccco1 | – | inactive: 2% |
| CCN1CCN(CCNC(=O)c2ccc(/C=C3/Sc4ccccc4N(Cc4cccc(Cl)c4)C3=O)cc2)CC1 | – | inactive: -16% |
| O=C(CNC(=O)C1CCCCC1)Nc1ccccc1 | – | inactive: -1.4% |
| COc1ccccc1C(CC(=O)c1ccccc1)CC(=O)c1ccccc1 | – | inactive: 12% |
| CC(C)CCNC(=S)Nc1ccc([N+](=O)[O-])cc1 | – | inactive: -81.8% |
| CN(C)CC(CCC(CN(C)C)C(O)(c1ccccc1)c1ccccc1)C(O)(c1ccccc1)c1ccccc1 (stereo not given) | – | inactive: 0.27% |
| O=C(NC1CCCCCC1)C(=O)NC1CCCC1 | – | inactive: 0.983% |
| COc1ccc(CNC(=O)CN2C(=O)NC3(CCCCCCC3)C2=O)cc1 | – | inactive: 4.02% |
| O=C(Nc1nc2c(s1)CCCC2)c1cc(-c2ccccc2)nc2ccccc12 | – | inactive: 31.5% |
| CCn1nc(C)c(CNC(=O)CC2C(=O)NCCN2CC(C)C)c1C (stereo not given) | – | inactive: 8.51% |
| COc1ccccc1CNC(=O)C1CCC(CNS(=O)(=O)c2ccc(F)cc2)CC1 (stereo not given) | – | inactive: -5.22% |
| COCCCn1c(=O)c2sccc2n2c(CCCC(=O)N(C)Cc3ccco3)nnc12 | – | inactive: 6.55% |
| CC1(C)CC(CCN)(Cc2ccccc2Cl)CCO1 (stereo not given) | – | inactive: 12.8% |
| O=C(O)c1cc(O)ccc1NC(=O)c1cccc2ccccc12 | – | inactive: 24.8% |
| O=C(CS(=O)CC(=O)Nc1ccccc1-c1ccccc1)Nc1ccc(F)cc1 (stereo not given) | – | inactive: -2.02% |

| SMILES | Potency | growth rescue (activation) |
| --- | --- | --- |
| Cc1cccc(CN2CCCC(C(=O)Nc3ccc(-c4cscn4)cc3)C2)c1 (stereo not given) | – | inactive: -6.15% |
| CCNC(=O)C1(C)CCN1CCS(=O)(=O)c1ccc(C)cc1 (stereo not given) | – | inactive: -5.14% |
| c1ccc(CCNc2cc(-c3ccc4ccccc4c3)nc3ccnn23)nc1 | – | inactive: 17% |
| COc1ccccc1N1CCN(C(=O)c2cc(S(=O)(=O)N3CCOCC3)ccc2C)CC1 | – | inactive: 32.4% |
| CCOc1ccc(NS(=O)(=O)c2cc(NC(=O)CCS(=O)(=O)c3ccc(C)cc3)ccc2OC)cc1 | – | inactive: 25.7% |
| CC(=O)Nc1cc(-c2ccc(C(=O)NC3CC3)cc2)cn2c(-c3cccc(C(F)(F)F)c3)cnc12 | – | inactive: 13.1% |
| C(=N\Nc1nc(N2CCCC2)nc(N2CCCC2)n1)/c1ccccc1OCc1ccccc1 | – | inactive: -7.91% |
| CN(/N=C/c1ccc(-c2ccc([N+](=O)[O-])cc2)o1)c1ccccc1 | – | inactive: 2.69% |
| CN(C)c1ccc(CC(=O)N2CCCCC2c2cc(C(=O)Nc3ccccc3)no2)cc1 (stereo not given) | – | inactive: -9.66% |
| COCc1cccc(-c2csc(C(NC(C)=O)c3ccc(F)c(F)c3)n2)c1 (stereo not given) | – | inactive: 19.7% |
| Cc1nnc(NC(=O)COc2ccc3c(C)cc(=O)oc3c2)s1 | – | inactive: 23.7% |
| CC(=O)CSc1ncnc2scc(-c3ccc(F)cc3)c12 | – | inactive: -0.5% |
| C=CCn1c(SCC(=O)c2cc(C)n(CCOC)c2C)nc2sc(C)c(C)c2c1=O | – | inactive: -28.8% |
| O=C(Cc1cn(-c2ccccc2)nc1-c1ccccc1)N1CCCCC1 | – | inactive: 27.4% |
| N#Cc1c(NC(=S)NC(=O)c2ccccc2)sc2c1CCC2 | – | inactive: 14.7% |
| COc1ccc(CCNC(=O)c2cc(S(=O)(=O)N3CCC4(CC3)OCCO4)ccc2F)cc1OC | – | inactive: -0.503% |
| Cc1ccc2nc(Cn3cc(C(F)(F)F)ccc3=O)cc(=O)n2c1 | – | inactive: 10.8% |
| O=C(Nc1cccc(Cl)c1Cl)C1CCCO1 (stereo not given) | – | inactive: -0.261% |
| CCN(CC)S(=O)(=O)c1cccc(NC(=O)COC(=O)C2COc3ccccc3O2)c1 (stereo not given) | – | inactive: 11.5% |
| Cc1nc(C(=O)N2CCc3c([nH]c4ccccc34)C2c2cc(F)ccc2F)cs1 (stereo not given) | – | inactive: 14.3% |
| O=C(COC(=O)c1ccc(N2CCOCC2)c([N+](=O)[O-])c1)Nc1ccc2c(c1)OCO2 | – | inactive: 24.1% |
| COc1ccc(/C=C2/C(=O)ON=C2C)cc1Cl | – | inactive: -6.74% |
| O=C(NC(=S)Nc1ccc2oc(=O)ccc2c1)c1cccc(Cl)c1 | – | inactive: -1.16% |
| Cc1ccc(C(=O)NCC(=O)N(C)Cc2cccc(F)c2)s1 | – | inactive: -7.24% |
